{"source": "PubChem BioAssay AID1159614", "about": "(National Center for Advancing Translational Sciences (NCATS), 2016)", "note": "The campaign covered roughly 45,000 compounds. About 65 (0.1%) were called active. Calls come from the whole dose curve; as a rule, active = well fitted activation curve with a large enough effect; inconclusive = small, poorly fitted or top-dose-only effect; inactive = no such curve, though single readings can be large or run the other way. The list shows a part of the results.", "data": [{"molecular_target": "Galactocerebrosidase (Homo sapiens) (UniProt P54803)", "sequence (P54803 whole entry, looked up)": "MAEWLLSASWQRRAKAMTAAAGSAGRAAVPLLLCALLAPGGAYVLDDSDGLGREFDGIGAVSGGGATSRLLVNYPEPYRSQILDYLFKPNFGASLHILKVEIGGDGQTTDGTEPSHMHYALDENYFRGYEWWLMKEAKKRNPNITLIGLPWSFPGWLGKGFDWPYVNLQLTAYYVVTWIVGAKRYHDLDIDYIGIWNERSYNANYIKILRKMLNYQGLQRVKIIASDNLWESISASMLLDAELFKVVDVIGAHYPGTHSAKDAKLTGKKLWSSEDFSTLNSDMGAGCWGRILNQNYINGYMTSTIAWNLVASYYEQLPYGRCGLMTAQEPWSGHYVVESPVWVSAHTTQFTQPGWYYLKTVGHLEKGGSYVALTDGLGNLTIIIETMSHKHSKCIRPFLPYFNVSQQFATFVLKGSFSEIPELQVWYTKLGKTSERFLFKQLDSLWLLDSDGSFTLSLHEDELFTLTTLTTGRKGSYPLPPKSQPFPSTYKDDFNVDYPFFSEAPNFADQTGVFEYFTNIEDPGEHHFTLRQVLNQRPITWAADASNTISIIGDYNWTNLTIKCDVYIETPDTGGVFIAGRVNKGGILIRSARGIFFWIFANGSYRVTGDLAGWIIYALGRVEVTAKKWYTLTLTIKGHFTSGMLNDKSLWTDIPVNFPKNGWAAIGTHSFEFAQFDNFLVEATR", "experiment": "A Novel Cell-Based Assay to Identify Small Molecules for B -Galactocerebrosidase; note: 0% is about no effect; nearly all actives have a fitted effect of over 65% in size", "settings": "145M-Twi-hGALC-G270D cells (Twitcher mouse brain line with human GALC G270D), HMU-beta-Gal fluorescence, 48 h; series mostly up to 57.5 µM; activation: at the top concentration", "summary_of_the_method": "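Fluorogenic HMU-b-Gal hydrolysis (0.1 mM final, pH 5.2 citrate-phosphate with 1 mg/mL sodium taurocholate; carbonate stop buffer) measures mutant GALC activity after compound treatment of live 145M-Twi Twitcher brain cells stably carrying human GALC-G270D, with wild-type GALC line alongside; activation sought.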", "values": [{"molecule": "Cc1cc(NS(=O)(=O)c2ccc(NC(=O)COc3cc(C)c(Br)cc3C(C)C)cc2)no1", "activation": "inactive: -8.09%"}, {"molecule": "CC(C)CCNC(=O)c1ccc2nc(Cc3ccccc3)oc2c1", "activation": "inactive: -12.4%"}, {"molecule": "COc1ccc(-c2cc(C(F)(F)F)nc(SCC(=O)NC(C)c3ccccc3)n2)cc1", "note": "(configuration not stated)", "activation": "inactive: -30.6%"}, {"molecule": "CCn1cc(S(=O)(=O)c2ccccc2)c(=O)c2cc(F)c(F)cc21", "activation": "inactive: 10.2%"}, {"molecule": "Cc1ccc(CN(C(=O)COc2ccc(F)cc2)C2CCS(=O)(=O)C2)o1", "note": "(configuration not stated)", "activation": "inactive: -17%"}, {"molecule": "Cc1ccc(-n2ncc(C(=O)NCCN3CCC(Cc4ccccc4)CC3)c2C2CCN(C(=O)OC(C)(C)C)CC2)cc1", "activation": "inactive: 3.54%"}, {"molecule": "O=C(NCC(c1cccnc1)N1CCc2ccccc21)c1ccc(Cl)cc1", "note": "(configuration not stated)", "activation": "inactive: -8.67%"}, {"molecule": "O=C(Nc1c2c(nn1-c1ccc(Cl)cc1)CS(=O)(=O)C2)c1ccc(Br)cc1", "activation": "inactive: -26.4%"}, {"molecule": "Cc1cc(O)c(CN2CCN(c3ccccc3)CC2)c2oc(=O)cc(C)c12", "activation": "inactive: -18.3%"}, {"molecule": "CCOC(=O)c1cc(NC(=O)c2ccc(F)cc2)c(=O)n2c1oc1ccc(Cl)cc12", "activation": "inactive: -5.32%"}, {"molecule": "CCCSCCCNC(=O)Cn1c(-c2cccs2)cc2ccccc21", "activation": "inactive: -10.4%"}, {"molecule": "Cc1ccc(NC(=O)CCCn2nc(C)c3c(C)n(-c4ccccc4)nc3c2=O)c(Cl)c1", "activation": "inactive: -11.4%"}, {"molecule": "CCCN1C(C(=O)c2ccccc2)=C(OC(=O)COc2ccc(C)cc2)c2ccccc2S1(=O)=O", "activation": "inactive: -3.65%"}, {"molecule": "COC(=O)CN1C(C(=O)c2ccccc2)=C(OC(=O)c2ccccc2)c2ccccc2S1(=O)=O", "activation": "inactive: -15.8%"}, {"molecule": "Cc1ccc(NC(=O)C2CCCN(S(=O)(=O)c3cccs3)C2)c(C)c1", "note": "(configuration not stated)", "activation": "inactive: -2.22%"}, {"molecule": "COc1ccc(S(=O)(=O)N(CC(=O)Nc2ccc(Br)cc2)Cc2ccccc2)cc1", "activation": "inactive: -9.95%"}, {"molecule": "Cc1ccc(C(=O)Nc2cnc3ccccn3c2=O)cc1", "activation": "inactive: -28.8%"}, {"molecule": "CCCn1c2ccccc2c2cnn(CC(=O)N3CCCC(C(=O)OCC)C3)c(=O)c21", "note": "(configuration not stated)", "activation": "inactive: -8.99%"}, {"molecule": "CCCCN(CCCC)C(=O)c1c[nH]c2ccc(S(=O)(=O)Nc3cccc(Cl)c3C)cc2c1=O", "activation": "inactive: -6.67%"}, {"molecule": "CCN1CCN(C(=O)Cn2ncc3c4ccccc4n(Cc4c(C)cc(C)cc4C)c3c2=O)CC1", "activation": "inactive: -21.6%"}, {"molecule": "Cc1nc(-c2ccc(S(=O)(=O)NCc3ccccc3Cl)cc2)co1", "activation": "inactive: -4.95%"}, {"molecule": "CCc1ccccc1NC(=O)Cn1c(=O)n(-c2ccc(C)cc2)c(=O)c2cc(OC)c(OC)cc21", "activation": "inactive: -7.77%"}, {"molecule": "COC(=O)c1scc(-c2ccc(C)cc2)c1S(=O)(=O)N1CCN(c2cccc(Cl)c2)CC1", "activation": "inactive: -14.5%"}, {"molecule": "O=C(NO)c1ccccc1", "activation": "inactive: -13.2% [at 114 µM]"}, {"molecule": "CCN(CCCNC(=O)Cn1ncc2c([nH]c3ccccc32)c1=O)c1cccc(C)c1", "activation": "inactive: -5.44%"}, {"molecule": "O=C(O)/C=C/c1ccc(Cn2ccnc2)cc1", "activation": "inactive: -12.7%"}, {"molecule": "CCc1ccccc1Nc1sc(C(=O)c2ccccc2)c(N)c1S(=O)(=O)c1ccccc1", "activation": "inactive: -7.96%"}]}]}
